From PubChem BioAssay AID485294 (National Center for Advancing Translational Sciences (NCATS), 2010)
About 150 (0.041%) of roughly 370,000 compounds were called active. The inconclusive results got no clear call from the source; some entries with a clear call stand among them for comparison. Calls come from the whole dose curve; as a rule, active = well fitted inhibition curve with a large enough effect; inconclusive = small, poorly fitted or top-dose-only effect; inactive = flat fitted curve, though single readings scatter. No potency is given beside an inconclusive call; the fits are too rough.

The compounds below were run against Beta-lactamase (Escherichia coli (strain K12)) (UniProt P00811) (assay: qHTS Inhibitors of AmpC Beta-Lactamase (assay with detergent)). Conditions: AmpC hydrolysis of nitrocefin, absorbance 480 nm, 0.01% Triton; series mostly up to 114 µM.
Chain of UniProt P00811 (P00811 whole entry, looked up): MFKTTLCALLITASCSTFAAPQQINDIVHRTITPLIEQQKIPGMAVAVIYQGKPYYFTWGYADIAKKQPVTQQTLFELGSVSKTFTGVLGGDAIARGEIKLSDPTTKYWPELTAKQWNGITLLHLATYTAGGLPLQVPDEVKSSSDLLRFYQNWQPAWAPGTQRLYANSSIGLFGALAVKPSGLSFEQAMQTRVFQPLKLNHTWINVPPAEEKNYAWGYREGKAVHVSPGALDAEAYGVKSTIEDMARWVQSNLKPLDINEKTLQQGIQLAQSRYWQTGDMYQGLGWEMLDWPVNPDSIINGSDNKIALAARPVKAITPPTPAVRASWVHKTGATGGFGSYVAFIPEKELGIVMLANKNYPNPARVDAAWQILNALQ
Method in brief: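 AmpC (5.3 nM in the dispensed reagent) in 20 mM phosphate pH 7.0 with 0.01% (detergent screen) or 0.0001% Triton X-100 was preincubated with compounds for 15 min at room temperature. Nitrocefin was then added from an 800 uM solution, and hydrolysis was followed at 480 nm.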
Note: nearly all actives have a fitted effect of over 25% in size.
Potency is the fitted concentration of half-maximal effect; tags give direction and shape of the fitted curve.

Compound | Potency
Cc1c(N=Nc2c(O)n(C)c(=O)n(C)c2=O)c(=O)n(-c2ccccc2)n1C | inconclusive [inhibitor, single point]
CSCCC(Nc1nc2ccccc2s1)C(=O)O (stereo not drawn) | inconclusive [inhibitor, full curve, poor fit]
CCc1nnc(NC(=O)CSc2ccc(Cl)cc2)s1 | inactive
COc1ccc(NC(=O)CSc2nnc(CN3CCOCC3)n2-c2ccccc2)cc1Cl | inconclusive [inhibitor, full curve, poor fit]
O=C(CSc1nc(-c2cccs2)nc2cc(=O)[nH]n12)Nc1ccccc1F | inconclusive [inhibitor, full curve, poor fit]
CCCOc1ccc(C(=O)Nc2ccc(Cl)c(-c3nc4ncccc4o3)c2)cc1 | inactive
Cc1cc(C)nc(SC2CCCCC2O)n1 (stereo not drawn) | inconclusive [inhibitor, single point]
COc1ccccc1-c1c(C)nn2c(N3CCCCCC3)cc(C)nc12 | inconclusive [inhibitor, full curve, poor fit]
COc1ccc(OCCSc2ncnc3nc[nH]c23)cc1 | inconclusive [inhibitor, full curve]
COc1cccc(-c2nc(SCC(=O)NC3CCCC3)c(-c3ccccc3)[nH]2)c1 | inactive
COC(=O)CN(C(=S)Nc1ccc(F)cc1)C1CC(=O)N(c2ccc(OC)cc2)C1=O (stereo not drawn) | inconclusive [inhibitor, full curve, poor fit]
CC(C)Oc1ccc(CNC(=O)CC(c2ccccc2)c2cc(Cl)ccc2O)cc1 (stereo not drawn) | inconclusive [inhibitor, full curve, poor fit]
Cc1nn(-c2ccccc2)c(N)c1C(O)(CSc1nccn1C)C(F)(F)F (stereo not drawn) | inconclusive [inhibitor, single point]
Cc1cccc(NC(=O)c2cc(-c3ccco3)nc3ccccc23)n1 | inconclusive [inhibitor, full curve, poor fit]
CCN1CCN(c2ccc(Nc3ccnc4ccccc34)cc2)CC1 | inconclusive [inhibitor, full curve, poor fit]
CCCCN(CC)C(=O)c1cc2cc3ccc(OC)cc3nc2o1 | inconclusive [inhibitor, single point]
O=C(O)Cc1ccc(NC(=O)Nc2ccc3c(c2)OCO3)cc1 | inconclusive [inhibitor, full curve]
O=[N+]([O-])c1c(Nc2ccccc2O)ccc2nonc12 | inconclusive [inhibitor, single point]
